# Source: PubChem BioAssay AID623919 (The Scripps Research Institute Molecular Screening Center, 2012)
# A number of entries come with more than one value. The list is limited to them.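 How the source made its calls: active means recombination in E. coli crosses cut more than 4-fold against the solvent-only control; inactive means cut of 4-fold or less.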 An entry can have further records. Results that share an entry are repeats (runs, samples, wells, individuals or studies). What stands in brackets tells the records apart. Letters count within one entry.
# Tested on: E. coli V66 Hfr conjugational recombination, colony counts
# Test: Hfr conjugational cross recombinant frequency reduction – V66 E. coli, colony formation, powder samples, 100 µM, counter-screen for AddAB inhibitor project, late-stage follow-up (AID 623919)
# Settings: at 100 µM; stronger effect = higher value
# Method in brief: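 Assay system: E. coli V66 recipient with Hfr donor. Times: 1 h compound exposure plus 30 min mating. Detection: differential plating colony counts. Replicates: duplicates.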
smiles,measurement,value
CCn1cc(C(=O)O)c(=O)c2cnc(N3CCN(C(=S)Nc4ccccc4C(F)(F)F)CC3)nc21,fold reduction of recombination,6 [sample A] and inactive: 1 [sample B]
